Source: paper PMC4336329 (PLoS ONE, 2015)
Out of some 310,000 compounds screened, about 2,200 (0.71%) showed an effect of 50% or more. The effect is printed as a negative number. This is one part of the list.

target: human ether-à-go-go-related gene (hERG) potassium channel (human, UniProt Q12809); assay: primary screen, population patch clamp on CHO cells stably expressing hERG
Sequence (Q12809 whole entry, looked up): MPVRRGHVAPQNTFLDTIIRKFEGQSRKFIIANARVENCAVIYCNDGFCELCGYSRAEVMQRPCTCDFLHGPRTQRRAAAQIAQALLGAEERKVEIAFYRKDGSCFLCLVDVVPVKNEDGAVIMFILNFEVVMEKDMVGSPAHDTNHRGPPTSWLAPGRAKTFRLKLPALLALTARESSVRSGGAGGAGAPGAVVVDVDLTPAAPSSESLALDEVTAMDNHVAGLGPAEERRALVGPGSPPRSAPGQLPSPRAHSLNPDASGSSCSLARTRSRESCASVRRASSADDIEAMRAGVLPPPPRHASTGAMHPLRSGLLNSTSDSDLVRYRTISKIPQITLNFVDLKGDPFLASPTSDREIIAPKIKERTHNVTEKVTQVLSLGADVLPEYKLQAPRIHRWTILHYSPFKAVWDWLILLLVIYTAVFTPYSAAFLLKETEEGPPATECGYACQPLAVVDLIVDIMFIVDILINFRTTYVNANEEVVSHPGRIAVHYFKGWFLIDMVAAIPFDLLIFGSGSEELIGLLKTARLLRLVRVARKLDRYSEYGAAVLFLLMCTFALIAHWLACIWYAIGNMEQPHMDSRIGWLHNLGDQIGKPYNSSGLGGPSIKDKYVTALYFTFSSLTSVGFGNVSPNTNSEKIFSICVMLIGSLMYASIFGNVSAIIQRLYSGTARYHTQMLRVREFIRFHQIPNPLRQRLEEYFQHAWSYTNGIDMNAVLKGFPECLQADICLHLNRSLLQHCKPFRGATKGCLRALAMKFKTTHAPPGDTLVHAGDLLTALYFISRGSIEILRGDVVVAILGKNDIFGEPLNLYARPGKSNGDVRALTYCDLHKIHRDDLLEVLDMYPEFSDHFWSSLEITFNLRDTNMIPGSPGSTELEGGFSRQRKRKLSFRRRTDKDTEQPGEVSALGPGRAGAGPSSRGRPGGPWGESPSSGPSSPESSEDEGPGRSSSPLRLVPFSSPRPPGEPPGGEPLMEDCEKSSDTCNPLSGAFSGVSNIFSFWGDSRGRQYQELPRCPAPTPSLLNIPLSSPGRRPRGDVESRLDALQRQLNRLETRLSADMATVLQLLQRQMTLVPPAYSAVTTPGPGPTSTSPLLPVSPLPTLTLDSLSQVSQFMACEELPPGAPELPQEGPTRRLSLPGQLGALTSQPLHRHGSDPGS

In order of rising “hERG current change (%, negative = inhibition) at 1uM” value:
1. CN(CC(=O)Nc1cccc([N+](=O)[O-])c1)S(=O)(=O)c1ccccc1  -25.7%
2. CCOC(=O)c1c(C)n(CC(COC(C)=O)OC(C)=O)c2ccc(OC(C)=O)cc12 (centres unmarked)  -14.9%
3. CCCCn1nnc(NC(=S)NC(=O)c2ccc(OCC)c([N+](=O)[O-])c2)n1  -13.3%
4. CCOC(=O)C1(Cc2ccccc2)CCN(Cc2cccc3nccnc23)CC1  -10.3%
5. COc1cccc(N2CCN(Cc3nc(N)nc(N4CCCc5ccccc54)n3)CC2)c1  -7.32%
6. N#Cc1c2n(c(=S)n(-c3ccccc3[N+](=O)[O-])c1=O)CCCCC2  -2.02%
7. COC(=O)C(C)Oc1ccc(-c2nccc(-c3ccccn3)n2)cc1 (centres unmarked)  0.304%
8. COc1ccc(N2CCN(CC(=O)Nc3ccccc3C(=O)NCc3ccccc3)CC2)cc1  1.11%
9. CN(C)c1nc(OCCOC(=O)COc2ccc(Cl)cc2Cl)nc(N(C)C)n1  1.41%
10. Cn1nc(C(F)(F)F)c(/C=N/OC(=O)c2ccccc2Cl)c1SCc1ccccc1Cl  1.56%
11. CC(=O)c1ccc(-c2ccc(C(=O)Nc3nc(C)c(C(C)=O)s3)o2)cc1  1.67%
12. Cc1ccc(NC2=C(NC(=O)c3ccccc3)C(=O)c3ccccc3C2=O)cc1Cl  1.79%
13. Oc1ccc(Nc2ccnc3cc(Cl)ccc23)cc1  2.4%
14. Cc1ccc(-c2nc(C#N)c(N3CCC(C(N)=O)CC3)o2)cc1  3.04%
15. COC(=O)C(C(=O)Nc1ccc(OC)cc1)C1CCCCCC1 (centres unmarked)  4.04%
16. COc1ccc(/C=N/NC(=O)c2cccnc2)cc1CSc1ccccn1  4.38%
17. Nc1c(-c2cccs2)cnc2c(-c3ccc(F)cc3)cnn12  5.91%
18. COc1ccc(C(=O)NC(C)C2CC3CCC2C3)cc1 (centres unmarked)  6.02%
19. CCOc1ccc2nc(SCC(=O)N3CCCCCC3)c(C#N)cc2c1  6.04%
20. Cc1ccc(NC(=O)Cn2nc([N+](=O)[O-])c(Br)c2C)cc1C  6.53%
21. O=c1c2ccccc2c(C=NCCCN2CCOCC2)c(O)n1Cc1ccccc1  6.61%
22. CC[C@@H]1CC=C[C@H]2[C@H]1C(=O)N(Cc1ccccc1)[C@H]2c1ccoc1  6.79%
23. COC(=O)c1cc2ccccc2c(=O)s1  7.27%
24. COc1ccccc1NC(=O)CC(c1ccc(F)cc1)c1ccco1 (centres unmarked)  7.32%
25. CCCOC(=O)CCCCCCCCC(O)CN1CCCCC1.Cl (centres unmarked)  7.6%
26. O=C1CNC(=O)N1c1ccc(Cl)cc1  8.46%
27. O=C(N/N=C/C1=Cc2ccccc2OC1)c1ccncc1  8.93%
28. Cc1ccc(S(=O)(=O)NCc2ccc(/C=C(/C#N)C(=O)NCc3ccccc3)o2)cc1  9.29%
29. COc1ccc(S(=O)(=O)N2CCCCC2)cc1NS(=O)(=O)c1cc(Cl)ccc1Cl  9.48%
30. Cc1ccc(S(=O)(=O)Nc2ccc(C(=O)Nc3ccncc3)cc2)cc1  10%
31. CC(C)c1ccc(NC(=O)C2C3C=CC4(CN(Cc5cccnc5)C(=O)C24)O3)cc1 (centres unmarked)  10.1%
32. Cc1[nH]c2ccc(OCc3ccccc3)cc2c1CCN1C(=O)OC(C)(C)C1(C)O (centres unmarked)  10.8%
33. Cc1ccc(S(=O)(=O)Nc2cc(Cl)c(O)c3ncccc23)cc1  11%
34. CCOc1cccc(-c2cc(-c3n[nH]c(=S)n3CC)c3ccccc3n2)c1  11.1%
35. O=C(NCc1cccs1)Nc1cccc(Cl)c1  11.3%
36. O=C(NCC(c1cccnc1)N1CCN(c2ccccc2F)CC1)OCc1ccccc1 (centres unmarked)  11.5%
37. CC(Sc1cccc[n+]1[O-])c1ccccc1 (centres unmarked)  13.2%
38. NS(=O)(=O)c1ccc(CNC(=O)c2ccc3c(=O)n4c(nc3c2)CCC4)cc1  13.3%
39. COc1ccc(C(=O)CNc2cccc(F)c2)cc1  13.3%
40. CC(=O)Oc1ccc(C(=O)Nc2ccc(S(=O)(=O)N3CCOCC3)cc2)cc1  14.3%
41. Fc1ccc(NC(=S)N2CCCCC2)cc1  14.3%
42. O=c1[nH]c2ccc(S(=O)(=O)NCCO)cc2[nH]1  15.2%
43. Cc1ccc2c(=O)cc(C(=O)NCCc3ccc(S(N)(=O)=O)cc3)oc2c1C  16.8%
44. COc1ccc(CNC(=O)Cn2c(=O)oc3cc(S(=O)(=O)N4CCCC4)ccc32)cc1  42.5%
